Source: PubChem BioAssay AID588579 (National Center for Advancing Translational Sciences (NCATS), 2011)
In all, about 400,000 compounds went through this assay and about 2,200 (0.55%) were called active. The shares of active, inactive and inconclusive entries below differ from those in the screen. The call rests on the fitted dose curve; in most records, active means well fitted inhibition curve with a large enough effect; inconclusive means small, poorly fitted or top-dose-only effect, or another doubt; inactive means no such curve, though single readings can be large or run the other way. Potencies of inconclusive entries are doubtful fits and often do not repeat. Some structures have more than one record in an assay (separate samples or runs), and their calls can disagree.

These molecules were tested against DNA polymerase kappa (Homo sapiens) (UniProt Q9UBT6) (assay: qHTS for Inhibitors of Polymerase Kappa). Details: purified Pol kappa, fluorescent DNA synthesis assay, 10 min; series mostly up to 107 µM; activity, negative = inhibition: at the top concentration.
How it was run: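 Enzyme at 10 nM met test compounds for 15 min at room temperature. Substrate addition (50 nM final) began the reaction, which was monitored by fluorescence at 0 and 10 min.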
On the % scale 0 is the no-effect control and ±100 the full control effect; potency means the concentration at half of the fitted maximal effect; tags describe the fitted curve by direction and shape.

Sequence of UniProt Q9UBT6 (Q9UBT6 whole entry, looked up): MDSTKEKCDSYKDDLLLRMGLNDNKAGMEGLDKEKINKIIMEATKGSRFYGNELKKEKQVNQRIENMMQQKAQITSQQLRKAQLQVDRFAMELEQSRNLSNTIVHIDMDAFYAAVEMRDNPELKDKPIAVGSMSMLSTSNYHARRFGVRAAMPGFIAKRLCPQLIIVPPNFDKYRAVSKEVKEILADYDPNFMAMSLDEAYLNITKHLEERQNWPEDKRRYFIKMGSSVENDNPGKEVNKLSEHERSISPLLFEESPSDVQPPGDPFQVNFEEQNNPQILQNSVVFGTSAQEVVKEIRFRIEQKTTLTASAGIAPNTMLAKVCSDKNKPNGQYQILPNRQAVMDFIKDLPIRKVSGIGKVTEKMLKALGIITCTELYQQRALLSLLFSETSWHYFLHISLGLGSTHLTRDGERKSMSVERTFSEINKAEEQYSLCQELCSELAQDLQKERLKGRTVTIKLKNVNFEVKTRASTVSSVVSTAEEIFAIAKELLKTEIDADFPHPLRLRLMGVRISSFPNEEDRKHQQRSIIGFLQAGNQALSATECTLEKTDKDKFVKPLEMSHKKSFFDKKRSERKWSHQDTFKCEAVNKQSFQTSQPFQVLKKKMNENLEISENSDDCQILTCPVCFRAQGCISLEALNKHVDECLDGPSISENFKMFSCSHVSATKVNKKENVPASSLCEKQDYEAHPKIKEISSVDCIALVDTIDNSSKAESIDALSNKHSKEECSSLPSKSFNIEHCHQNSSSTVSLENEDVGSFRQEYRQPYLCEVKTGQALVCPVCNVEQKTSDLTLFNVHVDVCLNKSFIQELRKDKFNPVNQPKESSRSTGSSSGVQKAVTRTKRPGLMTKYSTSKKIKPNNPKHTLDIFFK

Row | Structure (SMILES) | Potency | activity, negative = inhibition
1 | C[C@@H]1C(c2ccc(F)cc2)=NN(c2ccc(Br)cc2)[C@H]1C(=O)N1CCOC1=O | inconclusive: 35.5 µM [inhibitor, partial curve, poor fit] | 
2 | O=C(O)C1=CC(=C(c2ccc(O)c(C(=O)O)c2)c2ccc(O)c(C(=O)O)c2)C=CC1=O | active: 0.631 µM | 
3 | O/C=c1\ccc2cccc3nc(C(F)(F)F)nc1c23 | inconclusive: 20 µM [inhibitor, full curve, poor fit] | 
4 | COc1nc(NC(=O)c2ccc(F)cc2)nc(OC)c1-c1ccccc1 | inconclusive: 100 µM [inhibitor, single point] | 
5 | COCCN(CCOC)Cc1c(O)ccc2c1O/C(=C\c1ccco1)C2=O | inconclusive: 50.1 µM [inhibitor, partial curve, poor fit] | 
6 | COc1ccc(-c2nnc3sc(-c4ccco4)nn23)cc1OC |  | inactive: -6.61%
7 | Cc1cc(C)nc(NS(=O)(=O)c2ccc(N)cc2)n1 | inconclusive: 89.1 µM [inhibitor, single point] | 
8 | COc1ccccc1CCn1c(=O)c(-c2cc(F)cc(F)c2)nc2cncnc21 | inconclusive: 0.0251 µM [inhibitor, full curve, poor fit] | 
9 | O=C(CSc1nnc(-c2ccco2)c(-c2ccco2)n1)Nc1ccccc1 | active: 20 µM | 
10 | CCOC(=O)c1cc(-c2ccccc2)nn1Cc1cc(CC)no1 |  | inactive: -14.8%
11 | CN(C)c1ccc(NC(=O)CSCc2nc3c(nnn3Cc3ccc(F)cc3)c(=O)[nH]2)cc1 | inconclusive: 89.1 µM [inhibitor, partial curve] | 
12 | O/N=C(/CI)c1ccc2ccccc2c1 |  | inactive: 2.37%
13 | O=C(O)CCc1ccc(S(=O)(=O)Nc2ccc(OCc3ccccc3)cc2)cc1 | inconclusive: 89.1 µM [inhibitor, partial curve] | 
14 | O=C(Nc1cccnc1)c1cc(-c2cccc(Br)c2)nc2ccccc12 | inconclusive: 89.1 µM [inhibitor, single point] | 
15 | CC(C)=CCc1c2c(c3occ(-c4ccc(O)c(O)c4)c(=O)c3c1O)C=CC(C)(C)O2 | inconclusive: 20 µM [inhibitor, partial curve, poor fit] | 
16 | Oc1cc(CNCc2ccccc2)c(O)cc1CNCc1ccccc1 | active: 79.4 µM | 
17 | Cc1cccc(/C(N)=N/OC(=O)c2ccoc2C)c1 |  | inactive: 1.34%
18 | O=C(CN1CCOCC1)NNC(=S)Nc1ccccc1 | inconclusive: 89.1 µM [inhibitor, single point] | 
19 | CC1CCN(c2ccc(S(=O)(=O)Nc3cc(C(=O)O)cc(C(=O)O)c3)cc2[N+](=O)[O-])CC1 | inconclusive: 79.4 µM [inhibitor, single point] | 
20 | Cc1cccc(C(=O)Nc2ccc(C(=O)N/N=C/c3ccco3)cc2)c1 | inconclusive: 79.4 µM [inhibitor, partial curve] | 
21 | CCOc1ccc(CNC(=O)c2cnc3sc(N4CCCCCC4)nn3c2=O)cc1OC |  | inactive: 1.37%
22 | CN(C)c1cccc(C(=O)N2CCC(c3ccncc3)CC2)c1 |  | inactive: -5.73% [at 60.1 µM]
23 | CCOC(=O)C1=C(N)Oc2c(c(=O)[nH]c3ccccc23)C1c1ccccc1 (configuration not stated) | inconclusive: 89.1 µM [inhibitor, partial curve, poor fit] | 

Row | Structure (SMILES) | Potency | activity, negative = inhibition
24 | CCOc1ccc(C(C)NC(=O)c2cc(=O)[nH]c3ccccc23)cc1OCC (configuration not stated) | inconclusive: 100 µM [inhibitor, single point] | 
25 | CCCn1c(NCc2ccco2)nc2c1c(=O)n(C)c(=O)n2C | inconclusive: 89.1 µM [inhibitor, single point] | 
26 | Cc1nn(-c2ccccc2)c(Cl)c1/C=N/Nc1ccc(S(=O)(=O)Nc2ccccc2C(=O)O)cc1[N+](=O)[O-] | inconclusive: 89.1 µM [inhibitor, single point] | 
27 | CCOc1ccccc1NC(=O)c1ccc(C(=O)Nc2ccccc2OCC)cc1 | inconclusive: 100 µM [inhibitor, partial curve, poor fit] | 
28 | O=[N+]([O-])c1ccc(-c2c[nH]c(=S)[nH]2)cc1 | inconclusive: 89.1 µM [inhibitor, partial curve, poor fit] | 
29 | O=C(/C=C/c1ccccc1)Nn1cnc2ccccc2c1=O | inconclusive: 79.4 µM [inhibitor, partial curve, poor fit] | 
30 | COc1ccc(C(=O)NCC(c2ccc3c(c2)OCO3)N2CCN(C)CC2)cc1OC (configuration not stated) |  | inactive: -1.64% [at 60.1 µM]
31 | CCc1ccc(C(=O)c2cn(CC(=O)Nc3cccc(C)c3C)c3nc(C)ccc3c2=O)cc1 |  | inactive: 10.1%
32 | O=C(O)/C=C/c1ccc(S(=O)(=O)Nc2ccc(C(=O)NCC(=O)O)cc2)cc1 | inconclusive: 100 µM [inhibitor, single point] | 
33 | CCOc1ccc(/C=C/c2ccc3ccccc3n2)cc1OCC | inconclusive: 50.1 µM [inhibitor, partial curve, poor fit] | 
34 | O=C(Nc1ccccc1F)c1cnn2c1NC(=C1CC1)C=C2C(F)F |  | inactive: -83.4%
35 | CCC(C(=O)N(C)Cc1ccccc1)n1nc(C)c2sc3ccccc3c2c1=O (configuration not stated) |  | inactive: -13.1%
36 | O=C(COC(=O)c1ccc(S(=O)(=O)NCc2ccco2)cc1)Nc1ccc(Cl)cn1 | active: 79.4 µM | 
37 | Cc1c(N)cc(N)cc1C(=O)O | active: 89.1 µM | 
38 | CC(C)C(=O)N1CCN(c2ccccc2NC(=S)NC(=O)/C=C/c2ccco2)CC1 | inconclusive: 79.4 µM [inhibitor, partial curve, poor fit] | 
39 | COc1cc(/C=C2\C(=N)N3N=C(CC(=O)N4CCOCC4)SC3=NC2=O)cc(OC)c1OC | active: 31.6 µM | 
40 | O=C(O)c1cc(N2C(=O)C=CC2=O)cc(N2C(=O)C=CC2=O)c1 | active: 2.24 µM | 
41 | CCOC(=O)c1cc(-c2ccc(OC)cc2)n(CCC(=O)Nc2cccc(C(C)=O)c2)c1C |  | inactive: -14% [at 60.1 µM]
42 | O=C(O)CC(NCc1ccco1)C(=O)OCCc1ccccc1 (configuration not stated) |  | inactive: -12.8%
43 | O=C(OCc1nnc(-c2ccccc2)o1)c1cccc(S(=O)(=O)N2CCOCC2)c1 | active: 89.1 µM | 
44 | O=C(NCc1ccco1)c1nc2nc(-c3cccs3)cc(C(F)(F)F)n2n1 | inconclusive: 89.1 µM [inhibitor, single point] | 
45 | COCCN1CSC(=S)N(Cc2ccco2)C1 | inconclusive: 79.4 µM [inhibitor, partial curve, poor fit] | 
46 | CC1=C(C#N)c2nc(N)c(C#N)c(C)c2/C1=C\c1ccc(OCC(=O)O)c(Cl)c1 | active: 79.4 µM | 

Row | Structure (SMILES) | Potency | activity, negative = inhibition
47 | COc1ccc(Cn2c(C)nc3c(c2=O)c2nc4ccccc4nc2n3Cc2ccco2)cc1 | active: 35.5 µM | 
48 | CCCN1C(=O)/C(=C/c2c(N3CCNC(=O)C3CC(=O)OCC)nc3c(C)cccn3c2=O)SC1=S (configuration not stated) | inconclusive: 89.1 µM [inhibitor, partial curve] | 
49 | O=C(CN(c1cccc(C(F)(F)F)c1)S(=O)(=O)c1ccccc1)Nc1cccc(Cl)c1 |  | inactive: -6.22% [at 60.1 µM]
50 | C#Cc1ccc2c(c1)C(=O)N(C)Cc1c(C(=O)OCCCOC(=O)c3ncn4c3CN(C)C(=O)c3cc(C#C)ccc3-4)ncn1-2 |  | inactive: -1.85% [at 60.1 µM]
51 | CO[C@@]12[C@@H](COC(N)=O)C3=C(C(=O)C(C)=C(N)C3=O)N1C[C@@H]1N[C@@H]12 | inconclusive: 8.91 µM [inhibitor, single point] | 
52 | O=C(O)CCC(=O)N1CCC(n2nnc3cc(C(F)(F)F)ccc32)CC1 |  | inactive: -30%
53 | Cc1c([N+](=O)[O-])cc(N2C(=O)C=CC2=O)cc1[N+](=O)[O-] | inconclusive: 89.1 µM [inhibitor, single point] | 
54 | CCCCCCCCNc1ccc(/C=C/c2ccnc3ccccc23)cc1 | inconclusive: 100 µM [inhibitor, single point] | 
55 | Cc1ccc(/C=C/C(=O)NCc2ccccn2)o1 | active: 44.7 µM | 
56 | c1coc(-c2nnc(-c3ccco3)nn2)c1 | active: 17.8 µM | 
57 | COc1cc2[nH]c(C(=O)N(C)Cc3ccccc3)cc2c(OC)c1OC | inconclusive: 50.1 µM [inhibitor, partial curve, poor fit] | 
58 | CN(c1ccc(Cl)cc1)S(=O)(=O)c1nnc(NC(=O)c2ccco2)s1 | inconclusive: 89.1 µM [inhibitor, single point] | 
59 | O=C(COC(=O)C12CC3CC(CC(C3)C1)C2)NCc1ccco1 | inconclusive: 89.1 µM [inhibitor, partial curve, poor fit] | 
60 | COc1cc(C(CC(=O)N2CCCC2)c2c(OC)cc(OC)c3ccc(=O)oc23)cc(OC)c1OC (configuration not stated) | inconclusive: 89.1 µM [inhibitor, single point] | 
61 | Nc1nnc(SCc2nc3scc(-c4ccccc4)c3c(=O)[nH]2)s1 | inconclusive: 28.2 µM [inhibitor, single point] | 
62 | CCOc1ccc(S(=O)(=O)N(C)CC(=O)N2CCCC2)cc1 |  | inactive: -0.166%
63 | CC1C=CC=CC=CC=CC=CC=CC=CC(OC2OC(C)C(O)C(N)C2O)CC2OC(O)(CC(O)CC(O)C(O)CCC(O)CC(O)CC(=O)OC(C)C(C)C1O)CC(O)C2C(=O)O (configuration not stated) | active: 17.8 µM | 
64 | C/C=C/C=C/C(=O)[C@@H]1[C@@H]([C@]2(C)OC(=O)C(C)=C2O)[C@H]2/C(=C(O)/C=C/C=C/C)C(=O)[C@]1(C)C(=O)C2(C)O (some centres not stated) | active: 8.91 µM | 
65 | CCCOc1ccc(CNC(=O)c2cc3oc4ccccc4c3n2C)cc1 |  | inactive: 7.79%
66 | C#CCOCCOCCOCCNc1nc(N2CCN(C(=O)[C@H](CCCCN)n3cc([C@@H](N)C(C)CC)nn3)CC2)nc(N2CCN(C(=O)[C@H](Cc3cc4ccccc4[nH]3)n3cc([C@@H](N)C(C)CC)nn3)CC2)n1 (some centres not stated) |  | inactive: -1.36%
67 | COc1ccc(S(=O)(=O)NCCSCc2ccco2)cc1 | inconclusive: 89.1 µM [inhibitor, partial curve, poor fit] | 
